The values that follow come from ChEMBL document CHEMBL4888484, “Replenishing the malaria drug discovery pipeline: Screening and hit evaluation of the MMV Hit Generation Library 1 (HGL1) against asexual blood stage Plasmodium falciparum ,using a nano luciferase reporter read-out” (2022).

The structures appear in SMILES notation. Where “and” joins values, the source holds several entries; their conditions need not be identical. Equal values may be shown once. In all, about 150,000 compounds went through this assay and about 540 (0.36%) showed an effect of 50% or more. Some of the results follow.

This test deals with Plasmodium falciparum. Briefly: Primary screen in NF54 nanoGlo assay, in single point, at 2uM, 72h; a lower Z score goes with more inhibition. The following applies: timepoint 72 hour. It is filed as functional, Erythrocyte.

Take `Cc1c(NC(=O)c2cc(-c3cccc(O)c3)on2)c(=O)n(-c2ccccc2)n1C`: the % Inhibition (commonly the change of the read-out against control, counted positive when it falls) is on record as -13% and the Z score came out at 2.42. For `O=S(=O)(Nc1ccc(Cc2ccncc2)cc1)N1CCCCC1`, the “% Inhibition” value was -13% and the Z score worked out at 1.32. For the molecule `COc1ccc(NC2(C(=O)N(C)[C@@H](C)c3cccc(OC)c3)CCCC2)cc1`, the “% Inhibition” value was -7% and the Z score is given as 1.32. Take `CCc1ccc(S(=O)(=O)N2CCCN(C)C[C@@H]2C)s1`: the “% Inhibition” value was 5% and the Z score is given as -0.64. Turning to `O=C(N[C@H](c1ccccc1)c1nnn[nH]1)c1cncc2sccc12`, the “% Inhibition” value was -1% and the Z score is 0.2.

Turning to `Cn1nccc1CCC(=O)N[C@H]1CCCC[C@H]1CC(F)(F)F`, the “% Inhibition” value is on record as -6% and the Z score is 1.05. The like results for `Cc1cnc(N2CCO[C@H](c3ccc(F)cc3)C2)nc1N` were, in that order, -1% and 0.16.

On to `CC1(C)C[C@@H]1C(=O)NCc1ccc(-c2ncon2)cc1`, for which the “% Inhibition” value was 10% and the Z score is -1.09. On the same counts, the results for `CCCn1c(=O)[nH]c2cc(-c3noc(CN4C(=O)COc5ccc(Cl)cc54)n3)ccc21` are -4% and 0.49. On the same counts, the results for `Cc1n[nH]c(CN2CCc3cc(C(F)(F)F)ccc3C2)n1` are -18% and 1.8.

With `CCc1cnc([C@H](C)NC(=O)NCC2(CC)CC2)s1`, the “% Inhibition” value was -12% and the Z score was determined as 1.38. For `CS(=O)(=O)NCCCc1cccc(Br)c1`, the “% Inhibition” value worked out at 0% and the Z score came out at 0.01.

With `CC(=O)Nc1ccc(CNC[C@H]2Cn3cc(-c4ccc(C)cc4)nc3CO2)cc1`, the “% Inhibition” value is on record as 11% and the Z score was -1.28.

Consider `c1coc(-c2nnn(CC3CCOCC3)n2)c1`, for which the “% Inhibition” value is on record as -11% and the Z score came out at 1.41. The like results for `CCCO[C@H]1CCCN(C(=O)c2ccc3[nH]cnc3c2)CC1` were, in that order, 0% and 0.04. On the same counts, the results for `O=C1CN(C(=O)NCC2(Cc3ccccc3)CCC2)CCN1` are -13% and 2.02. `O=C1CCCC1C1COCCN1S(=O)(=O)Cc1ccccc1Cl` (configuration not stated): the “% Inhibition” value is -2% and the Z score was 0.23. On the same counts, the results for `Cc1nccc(N2CCC[C@@H]2CNC(=O)OC(C)(C)C)n1` are -15% and 1.83. For the molecule `Cc1nc(C)c(C(=O)NCc2csc(N)n2)o1`, the “% Inhibition” value is -9% and the Z score is 0.84. With `O=C(Cc1nc2cc(Cl)ccc2[nH]1)N1CCCn2cncc2C1`, the “% Inhibition” value is reported as -4% and the Z score is reported as 0.81. Turning to `COc1ccc(CCc2nc(NC(=O)Cn3cnc4ccccc4c3=O)n[nH]2)cc1`, for the setting “2 µM”, the “% Inhibition” value was -12% and 1%.

As for `CCCS(=O)(=O)N1CCCCC1C(=O)NC(CO)CCC(C)(C)C` (configuration not stated), the “% Inhibition” value is reported as -4% and the Z score is reported as 0.62.

`COc1ccc(O[C@H]2COCCN(C(C)=O)C2)cc1`: the “% Inhibition” value is reported as 3% and the Z score was -0.49.

Regarding `CCCN(CC(=O)N(C)C)C(=O)Cc1ccc(Cl)c(Cl)c1`, the “% Inhibition” value is on record as -2% and the Z score came out at 0.22.
